# Reference: PubChem BioAssay (NCATS)
# Inconclusive means that the source gave no clear call. Such entries were picked first, then a sample of the others. Where the call is inconclusive, the potency comes from a doubtful curve fit. Activity calls are given as the source filed them. Calls come from the whole dose curve; as a rule, active = well fitted cell-killing curve with a large enough effect; inconclusive = small, poorly fitted or top-dose-only effect, or effect the other way; inactive = flat fitted curve, though single readings scatter.
# Test system: Tov-21-G
# Assay: Primary qHTS to identify gynecologic anti-cancer compounds using libraries of approved drugs and bioactive compounds (AID 1345084); note: nearly all actives have a fitted effect of over 55% in size
# Conditions: Gynecologic cancer cell panel viability, ATPlite luminescence, 48 h; series mostly up to 57.5 µM
# In short: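 Cells, 1,000 per well, were allowed to settle for 16 h at 37 C before compound addition. Five concentrations were tested for 48 h, and viability was read by ATPlite luminescence after 15 min at room temperature.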
# Potency is the fitted concentration of half-maximal effect; tags give direction and shape of the fitted curve.
row,SMILES,Potency
1,COc1cccc(-c2cc(F)ccc2C2Cc3nc(N)nc(C)c3C(=O)N2)n1 (stereo not given),active: 0.282 µM
2,CN1CCN(c2ccc(OC(F)(F)F)c(Nc3ncc4c(n3)-c3c(c(C(N)=O)nn3CCO)CC4)c2)CC1,"inconclusive: 0.282 µM [cytotoxic, full curve]"
3,CCNC(=O)c1noc(-c2cc(Cl)c(O)cc2O)c1-c1ccc(OC)cc1,active: 0.562 µM
4,O=C(Nc1ccc(Cl)cc1F)c1ccccc1O,"inconclusive: 35.5 µM [cytotoxic, single point]"
5,CCN(CC)CCN(Cc1ccc(-c2ccc(C(F)(F)F)cc2)cc1)C(=O)Cn1c(SCc2ccc(F)cc2)nc(=O)c2c1CCC2,"inconclusive: 39.8 µM [cytotoxic, single point]"
6,C#Cc1cccc(Nc2nc3cc(C(=O)O)ccc3c3cncnc23)c1,"inconclusive: 14.1 µM [cytotoxic, partial curve]"
7,CC(=O)Nc1ccc(NC(=S)NC(=O)c2ccc(C(C)(C)C)cc2)cc1,"inconclusive: 7.94 µM [cytotoxic, partial curve]"
8,C=C(C(=O)O)C1CC2=C(C)C(=O)CC2C(C)CC1O (stereo not given),"inconclusive: 35.5 µM [cytotoxic, single point]"
9,C=C1C(=O)OC2C(OC(=O)C=C(C)C)C(C)=C3C(=O)C=C(C)C3C(O)C12 (stereo not given),"inconclusive: 28.2 µM [cytotoxic, single point]"
10,O=C(Nc1ccc(-c2ccnc(Nc3ccc(N4CCOCC4)cc3)n2)cc1)C1CCCN1 (stereo not given),"inconclusive: 31.6 µM [cytotoxic, single point]"
